Data on 24 compounds can be found in publication PMC4336329 (PLoS ONE, 2015).

Each structure is given as a SMILES string. Among all 310,000 compounds or so, about 2,200 (0.71%) showed an effect of 50% or more. The effect is printed as a negative number. The list shows a part of the results.

In the experiment the target is human ether-à-go-go-related gene (hERG) potassium channel (human, UniProt Q12809). As to the kind of experiment: primary screen, population patch clamp on CHO cells stably expressing hERG.
human ether-à-go-go-related gene (hERG) potassium channel, sequence (Q12809 whole entry, looked up): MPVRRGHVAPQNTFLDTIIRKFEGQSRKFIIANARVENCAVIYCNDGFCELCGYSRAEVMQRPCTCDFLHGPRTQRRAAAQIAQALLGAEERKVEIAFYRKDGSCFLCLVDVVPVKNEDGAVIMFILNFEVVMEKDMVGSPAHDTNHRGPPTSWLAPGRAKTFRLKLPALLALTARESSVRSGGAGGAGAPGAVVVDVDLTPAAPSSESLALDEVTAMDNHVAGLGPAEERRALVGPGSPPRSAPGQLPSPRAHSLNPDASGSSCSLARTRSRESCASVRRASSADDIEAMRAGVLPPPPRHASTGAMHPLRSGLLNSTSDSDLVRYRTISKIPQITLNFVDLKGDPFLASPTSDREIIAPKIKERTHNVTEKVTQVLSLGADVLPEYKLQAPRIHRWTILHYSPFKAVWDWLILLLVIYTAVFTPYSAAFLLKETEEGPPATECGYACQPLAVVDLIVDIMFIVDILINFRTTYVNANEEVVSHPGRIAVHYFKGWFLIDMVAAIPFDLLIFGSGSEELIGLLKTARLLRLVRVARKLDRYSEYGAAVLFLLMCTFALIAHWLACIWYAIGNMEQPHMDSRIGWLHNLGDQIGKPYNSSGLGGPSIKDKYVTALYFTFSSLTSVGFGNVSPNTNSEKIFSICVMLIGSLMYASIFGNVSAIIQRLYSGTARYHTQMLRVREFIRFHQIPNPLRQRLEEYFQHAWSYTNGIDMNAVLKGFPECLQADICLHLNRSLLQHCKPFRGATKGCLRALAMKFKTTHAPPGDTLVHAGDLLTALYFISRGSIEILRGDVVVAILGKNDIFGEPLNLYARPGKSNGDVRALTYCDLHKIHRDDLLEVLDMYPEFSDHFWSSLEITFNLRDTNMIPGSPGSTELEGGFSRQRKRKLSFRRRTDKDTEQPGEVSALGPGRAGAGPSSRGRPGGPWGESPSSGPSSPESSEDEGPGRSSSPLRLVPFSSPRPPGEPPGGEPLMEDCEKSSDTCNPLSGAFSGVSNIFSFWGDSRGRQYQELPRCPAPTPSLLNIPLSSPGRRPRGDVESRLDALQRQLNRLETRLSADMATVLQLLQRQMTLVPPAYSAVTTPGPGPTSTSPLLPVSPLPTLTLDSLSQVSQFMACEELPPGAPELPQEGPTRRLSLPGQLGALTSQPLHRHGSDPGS
Regarding `O=C(c1ccc(Br)o1)N1CCC(c2nc3ccccc3[nH]2)CC1`, the “hERG current change (%, negative = inhibition) at 1uM” value is listed as 11.9%.

Consider `O=C(O)CSC12CC3CC(C1)CC(C(=O)O)(C3)C2`, for which the “hERG current change (%, negative = inhibition) at 1uM” value was 10.6%.

Turning to `COc1ccc(C2C(C#N)=C(N)N(c3cccnc3)C3=C2C(=O)CC(C)(C)C3)cc1OC` (stereo not drawn), the “hERG current change (%, negative = inhibition) at 1uM” value was -1.84%.

For `CCN1C(=O)c2cccc3c(NC(=O)c4cccc(N5C(=O)CCC5=O)c4)ccc1c23`, the “hERG current change (%, negative = inhibition) at 1uM” value was 7.58%.

Turning to `CN(C)C(CNC(=O)Cc1ccc(Br)cc1)c1ccccc1` (stereo not drawn), the “hERG current change (%, negative = inhibition) at 1uM” value is given as 10.3%.

Regarding `Cc1cccc(NNC(=O)C2CCC2)c1`, the “hERG current change (%, negative = inhibition) at 1uM” value stood at 1.94%.

Consider `COc1ccc(CNC(=O)c2ccc(NC(=O)C3CCCO3)cc2)cc1` (stereo not drawn), for which the “hERG current change (%, negative = inhibition) at 1uM” value was 0.478%.

Consider `Cc1noc(C)c1COc1cccc(C(=O)N2CCN(C/C=C/c3ccccc3)CC2)c1`, for which the “hERG current change (%, negative = inhibition) at 1uM” value is recorded as 11.6%.

As to `CCOC(=O)N1CCN(C(=O)CNC(=O)c2nn(-c3ccc(OC)cc3)c(=O)c3ccccc23)CC1`, the “hERG current change (%, negative = inhibition) at 1uM” value was determined as 7.33%.

With `O=C(Nc1ccc(OC(F)(F)C(F)F)c(NC(=O)c2cccc(F)c2)c1)c1cccc(F)c1`, the “hERG current change (%, negative = inhibition) at 1uM” value is recorded as 2.29%.

`COC(=O)C1(CCSC)NC(c2ccc(OC)cc2OC)C2C(=O)N(c3cccc(C(C)=O)c3)C(=O)C21` (stereo not drawn): the “hERG current change (%, negative = inhibition) at 1uM” value worked out at 14.9%.

Consider `CN(C(=O)c1ccc(-c2nn(C)c(=O)c3ccccc23)cc1)c1ccccc1`, for which the “hERG current change (%, negative = inhibition) at 1uM” value was 2.6%.

With `O=C(Nc1ccc(Oc2ncnc3cc(Cl)ccc23)nc1)c1cccs1`, the “hERG current change (%, negative = inhibition) at 1uM” value worked out at 11.6%.

Take `Cc1cc(-c2nnc(CCC(=O)N3CCN(Cc4cccnc4)CC3)o2)c(C)o1`: the “hERG current change (%, negative = inhibition) at 1uM” value was determined as 6.73%.

Take `CCC1CCCCN1C(=O)CSc1nnc(-c2c[nH]c3ccccc23)o1` (stereo not drawn): the “hERG current change (%, negative = inhibition) at 1uM” value is listed as 15.2%.

As to `COc1cccc(-c2c(NC(=O)c3ccco3)oc3ccc(Cl)cc3c2=O)c1`, the “hERG current change (%, negative = inhibition) at 1uM” value turned out to be 8.6%.

On to `C/C(=N\O)c1oc2ccc3c(C)cc(=O)oc3c2c1C`, for which the “hERG current change (%, negative = inhibition) at 1uM” value was 16.9%.

For `CN(CC(=O)NCCN1CCCCCC1)S(=O)(=O)c1cccc2nsnc12`, the “hERG current change (%, negative = inhibition) at 1uM” value was 9.42%.

With `Cc1ccc(Cc2c(C)c(C#N)c3[nH]c4ccccc4n3c2=O)cc1`, the “hERG current change (%, negative = inhibition) at 1uM” value is recorded as 9.52%.

Turning to `CC1(c2ccccc2)NC(=O)N(CC(=O)Nc2cc(Cl)ccc2N2CCOCC2)C1=O` (stereo not drawn), the “hERG current change (%, negative = inhibition) at 1uM” value came to 12.1%.

With `CCCNc1ncccc1C(N)=O`, the “hERG current change (%, negative = inhibition) at 1uM” value is given as 8.51%.

For the compound `O=C(CSc1nnc(NC(=O)c2ccccc2F)s1)NC1CC1`, the “hERG current change (%, negative = inhibition) at 1uM” value was found to be 20%.

For `Cc1cc(S(=O)(=O)N(Cc2ccc(F)cc2)CC2CCCO2)ccc1-n1cnnn1` (stereo not drawn), the “hERG current change (%, negative = inhibition) at 1uM” value stood at 0.35%.

For `Br.CCO.NCCCCCC(=O)OC1N=C(c2ccccc2Cl)c2cc(Br)ccc2NC1=O` (stereo not drawn), the “hERG current change (%, negative = inhibition) at 1uM” value came to 6.47%.
